The supplement of paper PMC5499739
In all, about 16,000 sequences were measured (“Z-score”: median about -0.37, highest 2% from about 3.2 on). Some of the results follow.

test system: RBM10 RRM1-ZnF (GST-tagged construct); assay: RNAcompete 7-mer binding Z-score; higher = stronger binding preference
In short: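 Each heptamer motif was given a one-sided Z-score for enrichment across the probes that contained it. GST-tagged RBM10 constructs (20 pmol) were combined with 1.5 nmol of a designed pool of 241 399 RNAs of up to 41 nt, transcribed from microarray-derived DNA templates. Binding took place in 1 ml Hepes pH 7.8 buffer containing KCl, NaCl, glycerol, DTT, BSA and glutathione Sepharose beads for 30 min at 4°C. After four 2-min washes at 4°C, bound RNA was identified by microarray hybridisation.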

Sequence | RNAcompete 7-mer binding Z-score
CUGCCCU | -0.571
AGGUGUG | 2.53
CGGCACU | -0.292
GAACACU | -0.438
AUUUUAC | -0.902
GUUUGCC | -0.214
UGUUAGU | -0.272
AUAUGAC | -0.357
GAAGGCU | 0.621
CACGGCA | 0.00404
GUUUGGC | 0.534
GAGCAUC | -0.22
CGAACGU | -0.373
GCAGUUU | -0.519
AUUUCUC | -0.818
GACGGUG | 1.83
GCGGCCG | 0.095
GCCGGUG | 0.261
CGCCCUU | -0.623
UUCGAGU | -0.581
GAUGGAG | 3.52
CUCUCUA | -0.746
ACCUUGC | -0.896
GUGGUAG | 2.2
UAUAGAG | 0.205

Sequence | RNAcompete 7-mer binding Z-score
UUAUAUA | -0.418
UCCGGGA | 0.358
CAGGGUC | 1.09
AAGAACC | -0.526
GUUCGCU | -0.532
GUUGCCU | -0.279
CUAAGGA | 0.365
GGCUCAU | -0.318
GUCGGUA | 0.781
CGGUCUU | -0.607
AUCUCUU | -0.88
UGACAAG | 0.222
UGCGGCC | -0.292
CUGCGGU | 0.134
UGGCCCU | -0.217
GGCACUU | -0.347
UCCGUCU | -0.802
CUACGGG | 1.18
UUAUAGU | -0.392
AACGUUC | -0.617
GGUGAAC | 1.94
GGAGACA | 1.95
AGGGAUU | 2.3
GUAGAUU | 0.332
GAGCGGG | 3.61

Sequence | RNAcompete 7-mer binding Z-score
CGCCGAU | -0.665
UGUAUUG | -0.168
CCUGAGU | -0.607
AACAGCU | -0.574
UCCAAAG | -0.633
CUGCAAA | -0.552
AGAAGAC | 0.0853
AAGAAUU | -0.217
AGCUAAC | -0.298
UUAUGAG | -0.184
ACCUGCU | -0.902
ACCUCCU | -0.834
AAGUCAG | -0.103
UAGGUCG | 0.774
CCAAUAC | -0.818
AUGGCCG | -0.022
CAUGACC | -0.792
CGUAGGA | 1.02
AGUAGCC | -0.314
GCGAGCC | 0.153
AAAAGGA | 3.01
UUAAGCU | -0.707
UUCCGUG | -0.503
GCUGACC | -0.425
UCGCGAG | -0.158

Sequence | RNAcompete 7-mer binding Z-score
UAGGACG | 1.62
CCUACGA | -0.535
GGAACGC | 0.927
CCCCUAA | -0.535
CUCCACC | -0.519
GCACUGC | -0.207
ACAGCCG | -0.597
UGGCGGC | 0.959
AGUGAUA | 0.511
GGAGUGC | 2.04
AGGGGUA | 3.69
CUGAUGA | -0.295
UCUGGCA | -0.707
UGUUGUA | -0.0512
AAAUUAG | -0.106
GCGCUGC | -0.0772
UCUAUUC | -0.737
GUGGUUU | 1.68
CUGGGAG | 1.66
UGGCUGA | 0.449
GCUUGCG | -0.327
ACCCAUC | -0.896
GCUGCCG | -0.171
AGAACCC | -0.889
GACCCCC | -0.386

Sequence | RNAcompete 7-mer binding Z-score
UGAACCG | -0.422
UUCUGUA | -0.652
CACACCA | -0.558
GUCCGGC | -0.659
GCCUGGC | -0.305
CACCCGA | -0.48
CCUCACU | -0.649
UUCCAGA | -0.675
CGUUCCC | -0.704
UGGUCAA | 0.248
GGGUUAA | 3.01
GCUCUCG | -0.285
GGGAAAA | 3.4
UACCUGU | -0.964
CCCCAGG | -0.116
CUUCGAA | -0.88
UGUAUUU | -0.724
AAAUCCU | -0.795
AGCCGGU | -0.259
UGAGAGA | 0.917
AAUUACG | -0.373
AAUCGGA | 0.537
CAGAUAG | -0.0642
UCCUAAA | -0.75
UAUGGCA | 0.413

Sequence | RNAcompete 7-mer binding Z-score
CGCGCAA | -0.597
GUUUCAU | -0.574
UCAUGCU | -0.597
CAGCAUC | -0.756
GAGGUGU | 2.37
CGCAUAA | -0.47
GUUGCCC | -0.259
ACUAGAC | -0.483
UAUUUCG | -0.798
AAAGACG | 0.628
AUUUAAU | -0.672
CUCGGUU | -0.363
UUUGUCA | -0.626
UAACGGA | 0.836
ACGGUCG | -0.0252
GUCGACG | 0.0658
UUACUCG | -0.6
CCUGGCC | -0.555
UUCUAGA | -0.714
AAAGCUG | -0.136
UAGGGGA | 3.71
GCCCCCA | -0.314
AGUUUGG | 1.35
UCGCCUC | -0.694
UAUGUGG | 1.19

Sequence | RNAcompete 7-mer binding Z-score
AACAGUA | -0.0999
AAGUCUA | -0.506
GGCUCAC | -0.142
CGUUUAG | -0.636
UUUACAA | -0.626
GUUACAA | 0.452
CAAACCC | -0.831
GGCGUUC | 0.0333
CUAAAUG | -0.223
UAUACGU | -0.357
AAACGUC | -0.688
GUGCCUC | -0.415
CCAUAAG | -0.701
AAAAUGU | -0.233
GCUGCGU | -0.399
GGGCAUU | 1.04
AUGUAGG | 2.28
UCUUUUU | -0.789
UGUGGUC | 0.319
CUGUCCU | -0.746
CGUGCAG | -0.11
AUGAGUG | 1.18
CUGCGGA | 0.199
UUCAAGA | -0.448
UUCUUCC | -0.756

Sequence | RNAcompete 7-mer binding Z-score
GGGGUCU | 1.38
AGGAACU | -0.0155
GUCGCGU | -0.0967
UUCAGGA | 0.0593
AAUCCAA | -0.766
CCGUUUU | -0.967
AAGGCGG | 2.44
ACAGAGG | 1.59
UGGCGCG | 0.833
UUACAUC | -0.795
AGGAGGU | 2.47
UGUAACA | -0.0479
UGAGGUU | 2.02
UCGGUAC | -0.0122
AGAUGCG | 0.111
UAGAAAA | 0.082
AGCGCAC | -0.279
CACUAAA | -0.493
UCCUGCG | -0.503
AGAUAAU | -0.204
GGAUCGG | 2.14
UCUGUAC | -0.717
UGUUCUC | -0.746
CCACUGU | -0.607
CCCUACC | -0.655

Sequence | RNAcompete 7-mer binding Z-score
UUUCGCA | -0.834
AUGACAU | -0.259
UCGCCCU | -0.756
AAAGUCA | -0.298
GGGGCGG | 2.7
GACUCCU | -0.763
AGUGCGA | 0.742
UCACAUA | -0.675
GAAACAA | 0.0853
AUAGACG | 0.261
CUUCAAG | -0.574
UUGACCA | -0.591
AUUGAUG | 0.238
CAAAGAG | 0.225
GACGAUA | -0.113
CGCACGA | -0.132
AAGAUUC | -0.522
GGAGAGC | 1.84
CGGCUGG | 0.576
UCGAGUG | 0.0138
CCGUAGA | -0.409
UCCGUCC | -0.746
UGGUCGC | 0.0105
AUCUGUA | -0.581
UAUUAUA | -0.386

Sequence | RNAcompete 7-mer binding Z-score
UGGCAGU | 0.283
AGGCAAA | 0.309
UCCCGGC | -0.561
GUGCUCC | -0.24
CGCCGCU | -0.578
CGUUGUA | -0.363
CAUAGAG | 0.0235
AAGAUAA | -0.0707
CUUAGGG | 0.472
GGAUCCA | -0.223
GCCUUUU | -0.984
GCAUACG | 0.0365
GGUCUUU | -0.422
CAGGAGU | 1.51
GGAGCAC | 1.51
UAUCGUA | -0.396
CCAAUCC | -0.837
AGGGUAA | 4.13
CUUCUCA | -0.889
UGUCCGG | -0.0869
GUCCAUG | -0.422
GGUUCCC | 0.0138
ACGAGUC | -0.496
UACAACC | -0.545
ACUCAGA | -0.539

Sequence | RNAcompete 7-mer binding Z-score
CACACAU | -0.584
UGCGCAA | -0.438
UGGAGAU | 1.26
GCGAUUA | -0.197
UAUGCCU | -0.776
CAGCAUU | -0.604
CUCAACG | -0.701
CACAAUG | -0.474
UCCUCAG | -0.678
CCGUCGA | -0.311
GGCUGAG | 1.3
GAUGUUA | -0.116
ACGAUCG | -0.249
CCCGCCC | -0.233
UUAUUCG | -0.73
GUGUCUG | 0.173
GCAGACC | -0.321
GGCCGCA | -0.509
GAAGGAG | 4.72
UGCACGA | -0.0414
ACAUGAC | -0.571
ACCGAGC | -0.448
CUUGCGG | -0.0382
AUGUCCC | -0.711
CACUCGG | -0.0187

Sequence | RNAcompete 7-mer binding Z-score
CGGGGCC | 0.621
AAUACUG | -0.246
ACAUUAG | -0.285
AUUAUGC | -0.587
GAGAUAC | 0.153
ACGCUAC | -0.613
GCUAAGU | -0.298
CUCCGCA | -0.568
GUCAUAG | -0.0674
CUACGAC | -0.785
UAGCGAG | 0.826
GAGGUAA | 2.23
AAGCAUC | -0.376
UGGCGAA | 0.761
UGAAACG | -0.119
AAUUUGA | -0.399
AGGUCGA | 0.29
GCAAAAG | 0.397
UAGCCGC | -0.487
CCAGUAC | -0.584
CACGACG | -0.0577
ACUCAGC | -0.639
AAAGGUC | 0.852
AGGAGAU | 1.41
CAGCAAC | -0.539

Sequence | RNAcompete 7-mer binding Z-score
CCCAUUC | -0.844
AUCGGUG | 0.894
CCCGAUG | -0.383
GAGGUCU | 0.0203
GAGUCGC | -0.155
UCAAGAU | -0.438
AGACGUC | -0.724
ACGUGCC | -0.542
UACCCCG | -0.49
GGUAUAC | 0.599
UGAUCUA | -0.672
AUAAUAA | -0.454
UAAGCGG | 0.833
UUUUUAA | -0.652
UGCGGGU | 2.92
UUAAAGA | -0.168
GGUCAAA | -0.145
UACCGCA | -0.649
AUCAUCU | -1
CGGAACG | 0.576
CAUGUCA | -0.5
GUGCCAC | -0.0317
ACGUACC | -0.578
AUCUGGU | -0.113
GUACCAA | -0.353

Sequence | RNAcompete 7-mer binding Z-score
AGGAAGG | 4.31
CUUUAGC | -0.941
CGGUGUU | 0.0528
ACCGACC | -0.824
UGCUUUA | -0.789
UGAUGGU | 1.87
AUAACUU | -0.649
CCUUAGG | -0.422
AUGCGCU | -0.532
AUCCGUA | -0.733
GCAUUCC | -0.668
GGAUGCG | 2.58
GUUUUUC | -0.62
CGGAAGU | 0.79
CAACGCC | -0.691
UUUAUCC | -0.815
ACGUGAG | 0.621
CUACACG | -0.571
CUAAGGC | -0.266
GAACUCC | -0.678
GUGGGGC | 3.52
CUUCUCC | -0.789
CGCAUUC | -0.639
AAAGGCA | 0.94
GGGCACA | 1.24

Sequence | RNAcompete 7-mer binding Z-score
AAUCCAG | -0.435
AGGGCAC | 0.933
CCGCUCC | -0.474
CUGUCAU | -0.6
UUGUGAG | 0.342
GUGACGC | 0.439
GUCGAGU | 0.0365
CAUACUG | -0.503
GUGUCCA | -0.457
CCCACCU | -0.386
CCAGGAC | 0.0495
GGCUACU | -0.275
UAUUCAA | -0.756
CCGACAA | -0.737
UUCUAGC | -0.779
CAUGACG | -0.409
GGGCUAA | 1.34
